These results are taken from paper PMC7150991 (Viruses, 2020).

Read-outs that look alike come from different tables or passages of the source.

The test system of the experiment is influenza A virus nucleoprotein. As to conditions: A549 cells, 12 h p.i., about 70% in control cells.

As for `COc1ccc2cc3[n+](cc2c1OC)CCc1cc2c(cc1-3)OCO2` [BBR, Berberine chloride hydrate], under “BBR 20 or 40 µM”, the “NP colocalized with nuclear staining” value was “More than 90%”.

In the case of `N#CC(=C(/N)Sc1ccccc1N)/C(C#N)=C(/N)Sc1ccccc1N` [U0126, reference compound], the “NP colocalized with nuclear staining” value (U0126 10 µM) is reported as “More than 90%”.
